According to PMC12136788:
The list shows a part of the results.

T1: UNK ZnF1-6 (called full-length) (human, UniProt Q9C0B0 30-357)
T1 sequence: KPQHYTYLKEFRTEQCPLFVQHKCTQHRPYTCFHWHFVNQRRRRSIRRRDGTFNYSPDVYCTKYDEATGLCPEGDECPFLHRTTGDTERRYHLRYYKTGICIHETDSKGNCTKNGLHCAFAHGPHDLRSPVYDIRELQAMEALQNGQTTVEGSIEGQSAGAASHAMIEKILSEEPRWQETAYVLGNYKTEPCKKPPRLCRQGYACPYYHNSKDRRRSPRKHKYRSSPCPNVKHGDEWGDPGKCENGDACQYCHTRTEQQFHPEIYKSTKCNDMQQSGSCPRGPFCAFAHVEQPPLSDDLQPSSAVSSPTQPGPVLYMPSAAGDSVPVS

B1: chr21:43695798:43695899:+|3pUTR|ENSG00000160208|msi1|FALSE|unique (ssRNA)
RNA: GGGAGUUCUACAGUCCGACGAUCACAAUAUUUUGUAAAAUGAUGCUUCCCCCUUCUCCAUGGUCUAGUCAAUUUUGUACAAUUAGGUAUCUGACUUUACAAGUUUGUUAUCCUUUCUAAUUUUUACUGAACUGAAAGCACAAACAACAGAGGAUUGAGCAUCA
B2: ENSG00000137168:stop:overlap|stop_codon|ENSG00000137168|stop_codon|NA|stop_codon (ssRNA)
RNA: GGGAGUUCUACAGUCCGACGAUCCAAACUCCCAGGACCGCCCUGUGGACGACGUGAAGAUCAUUAAGGCAUACCCUUCUGGGUAGACUUGCUACCCUCUUGAGCAGCUCUUCUGAGAUGGCCCCAGUGAACCAGCUUCUAGAUCAACAGAGGAUUGAGCAUCA
B3: ENSG00000119285:stop:overlap|stop_codon|ENSG00000119285|stop_codon|NA|stop_codon (ssRNA)
RNA: GGGAGUUCUACAGUCCGACGAUCUGUCGCCUUACUUCCUGCUUAAGCCAGCACAGAAGUGUCUGGAGUGGUUGAUUCACAGGUAGCUAAUAGAAUUACAGAAAUAACUAUGGGUUAAUCACUUUGGUCUUGUAAAAAAUUAAGCAACAGAGGAUUGAGCAUCA
B4: chr1:119913532:119913650:-|3pUTR|ENSG00000134250|msi1|FALSE|bound_elsewhere (ssRNA)
RNA: GGGAGUUCUACAGUCCGACGAUCUCAUGCUCUUGGCAAUUUCUUUGACUUUCUUUUAAGGGCAGAAGCAUUUUAGUUAAUUGUAGAUAAAGAAUAGUUUUCUUCCUCUUCUCCUUGGGCCAGUUAAUAAUUGGUCCAUGGCUACAACAGAGGAUUGAGCAUCA
B5: ENSG00000107863:be:win_4651|CDS|ENSG00000107863|bound_else_gene|NA|bound_elsewhere_windowed (ssRNA)
RNA: GGGAGUUCUACAGUCCGACGAUCAGCACGUCUUCCCAGGCCUCCCUGGCAAGGUUUUCCAUGAAGAAAUCAACCAGUCCAGAAACGAAACAUAGCGAGUUUUUGGCCAACGUCAGCACCAUCACCUCAGAUUAUUCCACCACACAACAGAGGAUUGAGCAUCA
B6: chr10:110135209:110135310:+|3pUTR|ENSG00000148700|msi1|FALSE|bound_elsewhere (ssRNA)
RNA: GGGAGUUCUACAGUCCGACGAUCCUCUCUAUUGGAAGAUUUUUUUAAUGUUCUACAUCAUUUAUGUUGUAUUACAAUGUAUGUAGAAAUAGUAACCUGUGAACUAUGCUUUUCCAUAACUUUUUAAAAAUAUAUAUAUCUAAACAACAGAGGAUUGAGCAUCA
B7: ENSG00000121579:stop:overlap|stop_codon|ENSG00000121579|stop_codon|NA|stop_codon (ssRNA)
RNA: GGGAGUUCUACAGUCCGACGAUCUCAGCUACAAUGACAAGUUCUACAAGGAUGUGCUGGAGCCUAUUUCAAUGAUAUUGCUGUAGGUGCAGUAUGCUGUAGGGUGGAUCAUUCACAGAAUCAGAAGAGACUUUACAUCAUGACCAACAGAGGAUUGAGCAUCA
B8: chr2:1632960:1633155:-|3pUTR|ENSG00000130508|msi1|total|mutant (ssRNA)
RNA: GGGAGUUCUACAGUCCGACGAUCGUCCAUUUUUCCGGUAUCCGAUAUGGCAGAAAAACCAUUUCCACUAUGCAAAGUUCUUUCCGACGUCAGUGAAAAUCAACUCUCAUACCUCAUGGUCUCUCUUUAAUUGACCAAAACCUUCAACAGAGGAUUGAGCAUCA
B9: chr13:30205178:30205279:-|3pUTR|ENSG00000102781|msi1|total|mutant (ssRNA)
RNA: GGGAGUUCUACAGUCCGACGAUCUUGGCAGUUUCUCUAACGACUCUGUACCGCUUCUGGCUUCUACUACUGAAACAAGAGUUCCGAUCACUGAUGGAGAGGCACCGUAAUCUGUUUGUGCUUUGGAAAAAUAUAUAAAAGUUUCAACAGAGGAUUGAGCAUCA
B10: chr2:223975255:223975490:-|3pUTR|ENSG00000135919|msi1|FALSE|bound_elsewhere (ssRNA)
RNA: GGGAGUUCUACAGUCCGACGAUCUUUAAAUUCUUUUCCCCCAUCCCCCUCCAAAGUCUUGAUAGCAAGCGUUAUUUUGGUGGUAGAAACGGUGAAAUCUCUAGCCUCUUUGUGUUUUUGUUGUUGUUGUUGUUGUUGUUUUAUCAACAGAGGAUUGAGCAUCA
B11: chr12:85264020:85264122:+|3pUTR|ENSG00000133640|unk|FALSE|unique (ssRNA)
RNA: GGGAGUUCUACAGUCCGACGAUCCAUAGUAUUUCAGUUACUUUCCACAGCUGUGUUGCUCAAUAAUAGCAUCCAGUGAACUUUAGUAUUUUUUUGUUUUUCCUGUAUUUUAUUAAAAUAUUUCAUCUAGAGAUAACUGAAGUGCAACAGAGGAUUGAGCAUCA
B12: ENSG00000070961:be:win_1651|CDS|ENSG00000070961|bound_else_gene|NA|bound_elsewhere_windowed (ssRNA)
RNA: GGGAGUUCUACAGUCCGACGAUCGGACUUCUUUUGGAUUUAAAACGGGAUUAUCAGGAUGUUAGAAAUGAAAUACCAGAAGAAGCACUGUACAAAGUCUACACCUUCAAUUCUGUUAGGAAGUCCAUGAGUACUGUCCUGAAACAACAGAGGAUUGAGCAUCA
B13: chr2:227144361:227144754:-|three_prime_utr|ENSG00000081052|control|control|control (ssRNA)
RNA: GGGAGUUCUACAGUCCGACGAUCGGCAAUGAUGGCAGCCAGAGAGAGGAAAGCAUGGAUCUUGUCACUGAUGACAAGUCGGCUAGUAGGAGCAGCCUCAUAGAAAUAAAAAGUAGCUUUCUGGAAUUAAUUCCUUUACUCUUUCAACAGAGGAUUGAGCAUCA
B14: chrX:129805617:129805718:-|3pUTR|ENSG00000188706|msi1|FALSE|unique (ssRNA)
RNA: GGGAGUUCUACAGUCCGACGAUCUCUUUUCCCAUUAGAUAUAUGUAAGUAGUUGUAGUAGAGAUAAUAAUUGACAUUUCUCGUAGACUACCCAGAAACUUUUUUAAUACCUGUGCCAUUCUCAAUAAGAAUUUAUGAGAUGCCCAACAGAGGAUUGAGCAUCA
B15: chr7:157269180:157269282:+|3pUTR|ENSG00000009335|unk|total|mutant (ssRNA)
RNA: GGGAGUUCUACAGUCCGACGAUCAUUUCCGGUUGUUUUAUGUUGAAUGUUCUAUAUCUUAUCCGUUAAUUUGUAUAUUUUAUCCGUAUUUUGGAAACCGCAUAUCUGAGACUGAAGAGAAAUUGACAAUUCACUUAUUUGUGGCAACAGAGGAUUGAGCAUCA
B16: chr18:54155150:54155251:-|3pUTR|ENSG00000134046|unk|FALSE|unique (ssRNA)
RNA: GGGAGUUCUACAGUCCGACGAUCUUUCCACUGGCUUUUGCCUGUAAGAAAAAAAAUGUACCCGAGCACAUAGAGCUUUUUAAUAGCACUAACCAAUGCCUUUUUAGAUGUAUUUUUGAUGUAUAUAUCUAUUAUUCAAAAAAUCAACAGAGGAUUGAGCAUCA
B17: chr12:57626096:57626197:-|3pUTR|ENSG00000135454|msi1|FALSE|unique (ssRNA)
RNA: GGGAGUUCUACAGUCCGACGAUCGUGUCUCUGCAAUGCUGUGGGCACAAAAGAAGGGGCACCAGAGUCCCUGUGCAAACACCUAGACUCACUUCAUGGAUUCCAAAGCUCUCAGCUUCAUUUUAUUAGUUACGUUAGGUAAGGCAACAGAGGAUUGAGCAUCA
B18: chr15:44524374:44524475:+|3pUTR|ENSG00000137770|msi1|FALSE|unique (ssRNA)
RNA: GGGAGUUCUACAGUCCGACGAUCUAUCUAUCUCAGAUCGAAUACAUAUAGUAGGUAGGCUAAAACAGAAGAGUCUUUAGAACUAGUGCAACUCCAGUGAAAUUUUUUAUGUACAGGACAUCUGCAGUUUAUAAAGAAUUCUGUCAACAGAGGAUUGAGCAUCA
B19: chr12:24811411:24811512:-|3pUTR|ENSG00000060982|msi1|total|mutant (ssRNA)
RNA: GGGAGUUCUACAGUCCGACGAUCGUGAAGAACUCUAUAUUUGUAUGUUGAGAGGGCAUGGAAUAAUUGUAUUUUGCUGGCAACCGACACAUUCUUUAUUAUUUGCAGAUUCCUCAUCAAAUCUGUAAUUAUGCACAGUUUCUGCAACAGAGGAUUGAGCAUCA
B20: chr6:11183581:11183682:-|3pUTR|ENSG00000111859|msi1|total|mutant (ssRNA)
RNA: GGGAGUUCUACAGUCCGACGAUCAAAACAAGAAUGCAUGAUCUCAGAGUGAUUAAAAAAAAAUCAGUGGAAAUAAAUGAUCACCGAAGGUGCUUUUCAAAACAACUGCUAUUAUAAUUCUCAAAGUCCUACUCUGCCAAAAGACAACAGAGGAUUGAGCAUCA
B21: ENSG00000122008:stop:overlap|stop_codon|ENSG00000122008|stop_codon|NA|stop_codon (ssRNA)
RNA: GGGAGUUCUACAGUCCGACGAUCGAGCAUUAUUGGCUUUUUACAGGCUGGAAACCAAGCCCUGUCAGCCACUGAGUGUACAUUAGAGAAAACUGACAAAGAUAAGUUUGUAAAACCUCUAGAAAUGUCUCAUAAGAAGAGUUUCAACAGAGGAUUGAGCAUCA
B22: chr3:120396629:120396730:-|3pUTR|ENSG00000163430|msi1|FALSE|unique (ssRNA)
RNA: GGGAGUUCUACAGUCCGACGAUCGCCUUCAUUUCUAGGAGUGCUUUAAGAGAAACUGUAAAUGGUGCUCUGGGGCUGGAGGCUAGUAAGGAAACUGCAUCACGAUUGAAAGAGGAACAGACCCAAAUCUGAACCUCUUUUGAGCAACAGAGGAUUGAGCAUCA

Target: T1, UNK ZnF1-6 (called full-length)
Assay: nsRBNS (natural sequence RNA bind-n-seq); RBNS binding buffer (assumed for nsRBNS): 25 mM Tris pH 7.5, 150 mM KCl, 3 mM MgCl2, 0.01% Triton X-100, 500 ug/ml BSA, 20 U/ml SUPERase-In, 4 C; UNK is unkempt and MSI1 is Musashi-1; names of the RNAs are library labels; protein concentration not given here; high values mean tight binding

Q: How did the binding signal turn out when B1 was run?
A: 1.9 enrichment R

Q: How did the binding signal turn out when B2 was run?
A: 0.7 enrichment R

Q: B3 was tested. Which binding signal did it give?
A: 0.511 enrichment R

Q: B4 was tested. Which binding signal did it give?
A: 1.97 enrichment R

Q: For B5, which binding signal is on record?
A: 0.486 enrichment R

Q: How did the binding signal turn out when B6 was run?
A: 7.46 enrichment R

Q: B7 was tested. Which binding signal did it give?
A: 0.743 enrichment R

Q: How did the binding signal turn out when B8 was run?
A: 0.41 enrichment R

Q: For B9, which binding signal is on record?
A: 0.42 enrichment R

Q: B10 was tested. Which binding signal did it give?
A: 2.44 enrichment R

Q: How did the binding signal turn out when B11 was run?
A: 10 enrichment R

Q: B12 was tested. Which binding signal did it give?
A: 0.323 enrichment R

Q: How did the binding signal turn out when B13 was run?
A: 3.24 enrichment R

Q: B14 was tested. Which binding signal did it give?
A: 101 enrichment R

Q: B15 was tested. Which binding signal did it give?
A: 0.843 enrichment R

Q: Which binding signal does the source give for B16 here?
A: 5.14 enrichment R

Q: For B17, which binding signal is on record?
A: 1.72 enrichment R

Q: With B18 as the binder, how does the binding signal read?
A: 0.782 enrichment R

Q: With B19 as the binder, how does the binding signal read?
A: 0.955 enrichment R

Q: With B20 as the binder, how does the binding signal read?
A: 0.354 enrichment R

Q: B21 was tested. Which binding signal did it give?
A: 0.433 enrichment R

Q: How did the binding signal turn out when B22 was run?
A: 0.489 enrichment R
